Data published in the supplement of paper PMC4967469.
A lower IC50 marks a more sensitive line; a fit beyond the top or the lowest dose is shown as a bound at that dose. The AUC spans the tested range (256-fold, ending at the top dose) of the same fit; the more sensitive the line, the further below 1. For some of these results: The top dose, if marked as inferred, was derived from the fitted curves, not read from the paper. For some of these results: An entry number marks a drug with two screens in the source, which often give different values.

What was measured:
Experiment in all cases: Viability of human cancer cell lines after 72 h of drug (GDSC screen)
RDEA119 = compound: COc1cc(F)c(F)c(Nc2ccc(I)cc2F)c1NS(=O)(=O)C1(C[C@H](O)CO)CC1 [RDEA119]; settings: top dose 5 µM, top dose inferred
Method: (§1)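 Human cancer cell lines in 384-well plates, medium with 10% serum, drug for 72 h over a 256-fold dose range (nine 2-fold or five 4-fold steps up to the top dose). Adherent lines were fixed and stained with the nucleic acid dye Syto60, suspension lines read with resazurin; signal relative to control wells, capped at 0 and 100%. One two-parameter sigmoid per drug and line, fitted in a mixed model over all curves with the slope shared within a line.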

QS11 = compound: OC[C@H](Cc1ccccc1)Nc1nc(Oc2ccc3c(c2)CCC3)nc2c1ncn2Cc1ccc(-c2ccccc2)cc1 [QS11]; settings: top dose 10.24 µM
Method: as §1

CUDC-101 = compound: C#Cc1cccc(Nc2ncnc3cc(OC)c(OCCCCCCC(=O)NO)cc23)c1 [CUDC-101]; settings: top dose 5.12 µM; top dose inferred
Method: as §1

OSU-03012 = compound: NCC(=O)Nc1ccc(-n2nc(C(F)(F)F)cc2-c2ccc3c(ccc4ccccc43)c2)cc1 [OSU-03012]; settings: top dose 16 µM; top dose inferred
Method: as §1

AC220 = compound: CC(C)(C)c1cc(NC(=O)Nc2ccc(-c3cn4c(n3)sc3cc(OCCN5CCOCC5)ccc34)cc2)no1 [AC220]; settings: top dose 1.024 µM; top dose inferred
Method: as §1

JNK-9L = compound: Fc1cc(-c2ccnc(Nc3ccc(-n4cnc(N5CCOCC5)n4)cc3)n2)cc(N2CCOCC2)c1 [JNK-9L]; settings: top dose 5.12 µM; top dose inferred
Method: as §1

5-Fluorouracil = compound: O=c1[nH]cc(F)c(=O)[nH]1 [5-Fluorouracil]; settings: top dose 32 µM; top dose inferred
Method: as §1

Cell Line | AUC (RDEA119; screen: GDSC drug entry 1014) | IC50 (RDEA119; screen: GDSC drug entry 1014) [µM] | AUC (RDEA119; screen: GDSC drug entry 1526) | IC50 (RDEA119; screen: GDSC drug entry 1526) [µM] | AUC (QS11) | IC50 (QS11) [µM] | AUC (CUDC-101) | IC50 (CUDC-101) [µM] | AUC (OSU-03012) | IC50 (OSU-03012) [µM] | AUC (AC220) | IC50 (AC220) [µM] | AUC (JNK-9L) | IC50 (JNK-9L) [µM] | AUC (5-Fluorouracil) | IC50 (5-Fluorouracil) [µM]
ESS-1 (endometrium, adherent) | 0.931 | > 5 | 0.925 | > 5 | 0.876 | 8.39 | 0.454 | 0.243 | 0.653 | 2.52 | 0.971 | > 1.02 | 0.638 | 0.735 | 0.713 | 7.45
CAL-62 (thyroid, adherent) | 0.634 | 0.719 | 0.656 | 0.826 | 0.846 | 6.96 | 0.611 | 0.635 | 0.528 | 1.19 | 0.982 | > 1.02 | 0.618 | 0.664 | 0.9 | > 32
SU-DHL-16 (B-cell lymphoma, suspension) | 0.996 | > 5 | 0.996 | > 5 | 0.91 | 7.28 | 0.01 | < 0.02 | 0.701 | 3.08 | 0.996 | > 1.02 | 0.557 | 0.438 | 0.727 | 7.12
NB5 (neuroblastoma, adherent) | 0.679 | 0.997 | 0.71 | 1.24 | 0.983 | > 10.2 | 0.803 | 2.58 | 0.855 | 13 | 0.97 | > 1.02 | 0.711 | 1.27 | 0.875 | > 32
Farage (B-cell lymphoma, suspension) | 0.93 | > 5 | 0.985 | > 5 | 0.913 | > 10.2 | 0.355 | 0.138 | 0.711 | 3.46 | 0.985 | > 1.02 | 0.502 | 0.323 | 0.539 | 2.5
5637 (bladder, adherent) | 0.903 | > 5 | 0.949 | > 5 | 0.771 | 3.55 | 0.199 | 0.0462 | 0.508 | 1.05 | 0.985 | > 1.02 | 0.845 | 3.19 | 0.864 | 23.8
DAN-G (pancreas, adherent) | 0.825 | 2.51 | 0.862 | 3.43 | 0.991 | > 10.2 | 0.739 | 1.38 | 0.991 | > 16 | 0.991 | > 1.02 | 0.84 | 2.9 | 0.937 | > 32
G-MEL (melanoma, adherent) | – | – | 0.248 | 0.0595 | 0.976 | > 10.2 | 0.595 | 0.58 | 0.762 | 5.67 | 0.983 | > 1.02 | 0.386 | 0.156 | 0.986 | > 32
SW1990 (pancreas, adherent) | – | – | 0.87 | > 5 | 0.91 | > 10.2 | 0.956 | > 5.12 | 0.674 | 3.36 | 0.985 | > 1.02 | 0.657 | 0.949 | 0.942 | > 32
GOTO (neuroblastoma, adherent) | 0.967 | > 5 | 0.964 | > 5 | 0.825 | 7.3 | 0.487 | 0.294 | 0.815 | 10.4 | 0.983 | > 1.02 | 0.645 | 0.854 | 0.523 | 2.34
OCUB-M (breast, adherent) | 0.99 | > 5 | 0.973 | > 5 | 0.802 | 4.27 | 0.353 | 0.133 | 0.697 | 3.27 | 0.96 | > 1.02 | 0.731 | 1.31 | 0.871 | 23.4
WM1552C (melanoma, adherent) | 0.749 | 1.63 | 0.678 | 0.982 | 0.88 | > 10.2 | 0.636 | 0.763 | 0.58 | 1.66 | 0.982 | > 1.02 | 0.605 | 0.625 | 0.642 | 4.97
EW-3 (Ewing sarcoma, adherent) | 0.983 | > 5 | 0.978 | > 5 | 0.936 | > 10.2 | 0.395 | 0.158 | 0.863 | > 16 | 0.928 | > 1.02 | 0.789 | 2.62 | 0.763 | 13
JHH-6 (liver, adherent) | – | – | 0.921 | > 5 | 0.971 | > 10.2 | 0.778 | 2.12 | 0.743 | 5.05 | 0.987 | > 1.02 | 0.588 | 0.558 | 0.964 | > 32
SKN-3 (head and neck, adherent) | 0.735 | 1.68 | 0.794 | 2.79 | 0.983 | > 10.2 | 0.437 | 0.209 | 0.983 | > 16 | 0.983 | > 1.02 | 0.638 | 0.829 | 0.888 | > 32
LB2518-MEL (melanoma, adherent) | 0.341 | 0.11 | 0.421 | 0.187 | 0.87 | > 10.2 | 0.68 | 1.05 | 0.774 | 6.63 | 0.987 | > 1.02 | 0.579 | 0.531 | 0.97 | > 32
CHSA0108 (chondrosarcoma, adherent) | 0.847 | 4.56 | 0.761 | 2.04 | 0.966 | > 10.2 | 0.38 | 0.142 | 0.888 | > 16 | 0.982 | > 1.02 | 0.549 | 0.445 | 0.982 | > 32

Cell Line | AUC (RDEA119; screen: GDSC drug entry 1014) | IC50 (RDEA119; screen: GDSC drug entry 1014) [µM] | AUC (RDEA119; screen: GDSC drug entry 1526) | IC50 (RDEA119; screen: GDSC drug entry 1526) [µM] | AUC (QS11) | IC50 (QS11) [µM] | AUC (CUDC-101) | IC50 (CUDC-101) [µM] | AUC (OSU-03012) | IC50 (OSU-03012) [µM] | AUC (AC220) | IC50 (AC220) [µM] | AUC (JNK-9L) | IC50 (JNK-9L) [µM] | AUC (5-Fluorouracil) | IC50 (5-Fluorouracil) [µM]
NCI-H650 (lung adenocarcinoma, adherent) | 0.824 | 3.38 | 0.899 | > 5 | 0.762 | 4.01 | 0.59 | 0.581 | 0.833 | 11.8 | 0.986 | > 1.02 | 0.767 | 2.09 | 0.902 | > 32
KELLY (neuroblastoma, adherent) | 0.72 | 1.22 | 0.91 | > 5 | 0.954 | > 10.2 | 0.431 | 0.211 | 0.812 | 7.61 | 0.989 | > 1.02 | 0.647 | 0.785 | 0.376 | 0.941
SIMA (neuroblastoma, adherent) | 0.769 | 2.13 | 0.857 | 4.93 | 0.917 | > 10.2 | 0.692 | 1.2 | 0.73 | 4.98 | 0.968 | > 1.02 | 0.648 | 0.87 | 0.666 | 6.2
RCC10RGB (kidney, adherent) | 0.852 | > 5 | – | – | 0.971 | > 10.2 | 0.846 | > 5.12 | 0.76 | 12.3 | 0.972 | > 1.02 | 0.648 | 1.23 | 0.874 | > 32
EBC-1 (lung squamous cell carcinoma, adherent) | 0.558 | 0.459 | 0.622 | 0.71 | 0.976 | > 10.2 | 0.725 | 1.54 | 0.827 | 11.5 | 0.983 | > 1.02 | 0.733 | 1.63 | 0.966 | > 32
LOUCY (T-cell lymphoblastic leukaemia, suspension) | 0.972 | > 5 | 0.958 | > 5 | 0.988 | > 10.2 | 0.228 | 0.0629 | 0.862 | 9.78 | 0.903 | 0.907 | 0.581 | 0.51 | 0.807 | 12.9
HT-1197 (bladder, adherent) | 0.93 | > 5 | 0.841 | 4.46 | 0.975 | > 10.2 | 0.791 | 2.78 | 0.771 | 7.28 | 0.982 | > 1.02 | 0.591 | 0.597 | 0.963 | > 32
HOS (osteosarcoma, adherent) | 0.923 | > 5 | 0.935 | > 5 | 0.723 | 2.41 | 0.992 | > 5.12 | 0.584 | 1.63 | 0.992 | > 1.02 | 0.595 | 0.556 | 0.944 | > 32
SAT (head and neck, adherent) | 0.701 | 1.58 | – | – | 0.975 | > 10.2 | 0.52 | 0.372 | 0.855 | > 16 | 0.972 | > 1.02 | 0.623 | 0.843 | 0.931 | > 32
HCC2998 (large intestine, adherent) | – | – | 0.608 | 0.611 | 0.92 | > 10.2 | 0.699 | 1.14 | 0.708 | 3.8 | 0.988 | > 1.02 | 0.682 | 1.01 | 0.746 | 9.91
H4 (glioma, adherent) | 0.828 | 3.04 | 0.866 | 4.39 | 0.686 | 2.1 | 0.877 | 5.03 | 0.482 | 0.893 | 0.986 | > 1.02 | 0.563 | 0.475 | 0.961 | > 32
IA-LM (large cell lung carcinoma, adherent) | 0.837 | 3.94 | 0.932 | > 5 | 0.804 | 5.86 | 0.779 | 2.36 | 0.529 | 1.21 | 0.984 | > 1.02 | 0.578 | 0.537 | 0.851 | 29.3
NCI-SNU-5 (stomach, suspension) | 0.695 | 1.11 | 0.906 | > 5 | 0.989 | > 10.2 | 0.86 | 4.41 | 0.986 | > 16 | 0.989 | > 1.02 | 0.726 | 1.42 | 0.884 | > 32
ML-2 (acute myeloid leukaemia, suspension) | 0.756 | 1.54 | 0.679 | 0.929 | 0.883 | 8.86 | 0.531 | 0.384 | 0.701 | 3.4 | 0.983 | > 1.02 | 0.543 | 0.412 | 0.574 | 3.11
MEL-JUSO (melanoma, adherent) | 0.566 | 0.485 | 0.645 | 0.827 | 0.84 | 8.27 | 0.482 | 0.284 | 0.627 | 2.34 | 0.977 | > 1.02 | 0.507 | 0.336 | 0.583 | 3.46
TCCSUP (bladder, adherent) | 0.859 | > 5 | 0.905 | > 5 | 0.928 | > 10.2 | 0.727 | 1.58 | 0.722 | 4.72 | 0.984 | > 1.02 | 0.807 | 3.08 | 0.938 | > 32
IMR-5 (neuroblastoma, adherent) | 0.992 | > 5 | 0.973 | > 5 | 0.786 | 3.69 | 0.581 | 0.513 | 0.753 | 4.61 | 0.973 | > 1.02 | 0.588 | 0.536 | 0.424 | 1.29
